No constants are given. Whether binding was seen depends on the method and setting. For some of these results: In cells and extracts the contact can be indirect. Some results given as binding are weak or reduced against the parent protein; the word gives no strength.

The source of these data is article PMC3834829.

Assay [1] has as its target FLAG-BCL11A-XL L319A, HEK293 (UniProt Q9H165). Nature of the assay: co-IP; HEK293 co-transfected; nuclear extracts in Triton X-100 lysis buffer; FLAG-tagged BCL11A-XL precipitated with anti-FLAG M2; Western blot. (In western blotting, separated proteins are transferred to a membrane and probed.)
The target in assay [2] is FLAG-BCL11A-XL (WT), HEK293 (UniProt Q9H165). The assay is described as above.
Assay [3] deals with FLAG-BCL11A-XL Y656A/W659A, HEK293 (UniProt Q9H165). Described as above.
A further assay has as its target T1, LexA-BCL11A RID2 Q658A (UniProt Q9H165).
T1 sequence: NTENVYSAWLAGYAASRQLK
Briefly: two-hybrid; S. cerevisiae L40; LexA DBD fusion with VP16 AAD-NR fusion; β-galactosidase activity in cell-free extracts; vehicle only or no ligand.

For a further assay, the target named is T2, LexA-BCL11A-(212–376) (UniProt Q9H165).
T2 sequence: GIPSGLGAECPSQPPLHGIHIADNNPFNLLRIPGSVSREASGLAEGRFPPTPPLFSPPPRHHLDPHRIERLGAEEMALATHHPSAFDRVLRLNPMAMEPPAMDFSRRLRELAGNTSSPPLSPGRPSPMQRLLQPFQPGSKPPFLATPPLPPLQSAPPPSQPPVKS
The description is as above.

For another assay, the target named is T3, LexA-BCL11A-(310–325) (UniProt Q9H165).
T3 sequence: PPAMDFSRRLRELAGN
The assay is described as above.

The target in the next assay is T4, LexA-BCL11A-(594–707) (UniProt Q9H165).
T4 sequence: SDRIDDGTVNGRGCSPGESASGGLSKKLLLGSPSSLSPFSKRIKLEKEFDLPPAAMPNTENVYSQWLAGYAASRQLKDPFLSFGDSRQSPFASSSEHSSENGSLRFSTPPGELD
The assay is described as above.

Another assay deals with T5, LexA-BCL11A RID2 G662A (UniProt Q9H165).
T5 sequence: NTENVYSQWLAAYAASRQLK
The assay is described as above.

The target of the next assay is T6, LexA-BCL11A-(651–670) (UniProt Q9H165).
T6 sequence: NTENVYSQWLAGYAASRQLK
Described as above.

The target of the next assay is T7, LexA-BCL11A RID2 V655A (UniProt Q9H165).
T7 sequence: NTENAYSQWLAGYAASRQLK
Described as above.

The next assay deals with T8, LexA-BCL11A RID2 S657A (UniProt Q9H165).
T8 sequence: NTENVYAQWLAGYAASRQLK
The description is as above.

The target in assay [4] is T9, LexA-COUP-TFII-LBD-(144–414) (UniProt P24468).
T9 sequence: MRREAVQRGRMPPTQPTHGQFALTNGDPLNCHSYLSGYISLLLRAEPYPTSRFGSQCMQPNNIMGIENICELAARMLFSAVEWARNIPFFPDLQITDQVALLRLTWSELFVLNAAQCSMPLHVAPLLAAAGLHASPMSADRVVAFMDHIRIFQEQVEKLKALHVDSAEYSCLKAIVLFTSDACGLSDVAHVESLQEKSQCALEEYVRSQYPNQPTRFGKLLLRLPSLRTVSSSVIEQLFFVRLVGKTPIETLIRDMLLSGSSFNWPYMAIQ
The description is as above.

The target of another assay is T10, LexA-BCL11A RID2 Y656A (UniProt Q9H165).
T10 sequence: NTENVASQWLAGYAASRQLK
The assay is described as above.

The target of the next assay is T11, LexA-BCL11A RID2 L660A (UniProt Q9H165).
T11 sequence: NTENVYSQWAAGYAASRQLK
Described as above.

The target in another assay is T12, LexA-BCL11A RID2 Y663A (UniProt Q9H165).
T12 sequence: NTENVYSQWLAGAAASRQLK
Described as above.

A further assay has as its target T13, LexA-BCL11A RID2 W659A (UniProt Q9H165).
T13 sequence: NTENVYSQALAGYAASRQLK
Described as above.

B1: COUP-TFII (pTL1-COUP-TFII), HEK293 (protein, UniProt P24468 1-414)
chain: MAMVVSTWRDPQDEVPGSQGSQASQAPPVPGPPPGAPHTPQTPGQGGPASTPAQTAAGGQGGPGGPGSDKQQQQQHIECVVCGDKSSGKHYGQFTCEGCKSFFKRSVRRNLSYTCRANRNCPIDQHHRNQCQYCRLKKCLKVGMRREAVQRGRMPPTQPTHGQFALTNGDPLNCHSYLSGYISLLLRAEPYPTSRFGSQCMQPNNIMGIENICELAARMLFSAVEWARNIPFFPDLQITDQVALLRLTWSELFVLNAAQCSMPLHVAPLLAAAGLHASPMSADRVVAFMDHIRIFQEQVEKLKALHVDSAEYSCLKAIVLFTSDACGLSDVAHVESLQEKSQCALEEYVRSQYPNQPTRFGKLLLRLPSLRTVSSSVIEQLFFVRLVGKTPIETLIRDMLLSGSSFNWPYMAIQ
For B1, the binding result in [1], in assay [2] and in assay [3] was “binds” in each case.

B2: AAD-COUP-TFII-LBD-(144–414) (domain or fragment, UniProt P24468 144-414)
chain: MRREAVQRGRMPPTQPTHGQFALTNGDPLNCHSYLSGYISLLLRAEPYPTSRFGSQCMQPNNIMGIENICELAARMLFSAVEWARNIPFFPDLQITDQVALLRLTWSELFVLNAAQCSMPLHVAPLLAAAGLHASPMSADRVVAFMDHIRIFQEQVEKLKALHVDSAEYSCLKAIVLFTSDACGLSDVAHVESLQEKSQCALEEYVRSQYPNQPTRFGKLLLRLPSLRTVSSSVIEQLFFVRLVGKTPIETLIRDMLLSGSSFNWPYMAIQ
B2: the binding entry with LexA-BCL11A RID2 Q658A, with LexA-BCL11A-(212–376), in the assay with LexA-BCL11A-(310–325), with LexA-BCL11A-(594–707), with LexA-BCL11A RID2 G662A and with LexA-BCL11A-(651–670) was “binds” each time. Further, the binding result is listed as “no binding” with LexA-BCL11A RID2 V655A; “no binding” with LexA-BCL11A RID2 S657A; “binds” in [4]; “no binding” with LexA-BCL11A RID2 Y656A; “no binding” with LexA-BCL11A RID2 L660A; “no binding” with LexA-BCL11A RID2 Y663A. Moreover, the binding result with LexA-BCL11A RID2 W659A is reported as “no binding”.
